The full ranking holds about 33,000 sequences; the median of “E-score (-0.5 to 0.5)” is about -0.011, and the highest 2% start at about 0.28. The list shows a part of the results.
Molecular target: T1, Gcr1 (UniProt P07261)
T1 sequence: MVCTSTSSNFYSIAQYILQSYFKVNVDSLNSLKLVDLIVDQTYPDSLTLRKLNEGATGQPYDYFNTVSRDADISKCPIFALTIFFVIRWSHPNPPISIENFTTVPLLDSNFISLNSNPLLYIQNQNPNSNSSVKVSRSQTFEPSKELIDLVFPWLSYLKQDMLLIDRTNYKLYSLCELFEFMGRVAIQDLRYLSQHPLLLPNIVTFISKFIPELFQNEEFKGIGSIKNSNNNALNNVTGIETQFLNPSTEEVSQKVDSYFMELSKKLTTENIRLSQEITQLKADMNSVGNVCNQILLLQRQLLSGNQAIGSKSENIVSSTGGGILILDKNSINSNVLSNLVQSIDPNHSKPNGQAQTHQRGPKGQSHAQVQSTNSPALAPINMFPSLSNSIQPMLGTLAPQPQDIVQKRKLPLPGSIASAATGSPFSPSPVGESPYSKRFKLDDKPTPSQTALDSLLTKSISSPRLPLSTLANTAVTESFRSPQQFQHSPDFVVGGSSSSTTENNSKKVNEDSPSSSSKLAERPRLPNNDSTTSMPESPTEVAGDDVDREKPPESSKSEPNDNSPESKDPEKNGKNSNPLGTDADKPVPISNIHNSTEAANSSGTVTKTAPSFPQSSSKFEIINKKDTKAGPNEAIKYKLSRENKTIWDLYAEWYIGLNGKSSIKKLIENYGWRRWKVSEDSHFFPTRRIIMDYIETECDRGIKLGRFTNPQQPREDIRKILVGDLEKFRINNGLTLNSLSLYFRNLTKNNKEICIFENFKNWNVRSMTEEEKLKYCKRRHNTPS
Assay: PBM E-score (8-mer binding enrichment) (E-score (-0.5 to 0.5)); higher = stronger / more preferred TF binding; most listed sequences are background and not binding sites
Details: protein concentration: 100 nM; construct: GST-full length
Summary of the method: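 GST-tagged yeast TFs (full-length or DNA-binding domain) were made by PURExpress in vitro transcription/translation and applied at about 100-200 nM to universal all-10-mer Agilent arrays. The arrays were made double-stranded by primer extension, on fresh or once-stripped slides. Bound protein was detected with fluorescent anti-GST, and scans were normalised with masliner. Each ungapped eight-base word, pooled with its reverse complement, received an E-score (modified Wilcoxon-Mann-Whitney statistic) from the Universal PBM Analysis Suite.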

| Sequence | PBM E-score |
| --- | --- |
| ATTCTAAC | 0.0097 |
| CGTCTCAA | 0.0914 |
| AAAGAAAA | -0.0271 |
| GCTTACGA | -0.00571 |
| AACCTCTG | -0.0338 |
| CCCTCCCA | -0.0295 |
| AACAAGTA | 0.172 |
| CCTGGGAC | -0.0336 |
| CGGGGTCA | -0.096 |
| TGCGCCAA | 0.0168 |
| GGAAAGAA | 0.17 |
| ATGGTATA | -0.0384 |
| TGGCGCCA | 0.37 |
| ACTGGGTC | -0.0289 |
| GAATAGTC | -0.165 |
| TATCCCCA | 0.052 |
| GCGTAATA | 0.0387 |
| AGTACGCG | -0.168 |
| GACTCGGC | -0.201 |
| CTTCCGGA | 0.347 |
| AAGATCCA | 0.107 |
| CTTTCTTA | -0.025 |
| GTTCAATA | 0.102 |
| GTAAACAA | -0.0071 |
| CGCCATCC | 0.0576 |

| Sequence | PBM E-score |
| --- | --- |
| GTGTCTTA | 0.127 |
| ACCATAGT | -0.12 |
| GCTATACA | -0.167 |
| CACTCCAA | -0.0296 |
| ATAGCTCC | -0.129 |
| CAAAAGTC | -0.179 |
| ATGGGAAA | -0.0125 |
| CCGCTTTC | -0.147 |
| AGCCGCAA | 0.137 |
| GCACCAGA | 0.244 |
| ACTGAAGC | 0.0268 |
| CACTCCTG | -0.156 |
| TCACGAGA | -0.0874 |
| CGACCTCG | -0.169 |
| ACAATAAT | -0.0486 |
| ATGCAAAG | 0.129 |
| AACGCGAC | 0.0323 |
| ATTACCTC | -0.173 |
| GCGTTAGA | -0.177 |
| AATTAACG | -0.00943 |
| CAAACGCG | 0.0541 |
| ATAGTCAG | -0.227 |
| GGGCTTCA | 0.071 |
| GACAAACA | -0.0622 |
| TGATGCAA | -0.0566 |

| Sequence | PBM E-score |
| --- | --- |
| ATCTGGTC | 0.104 |
| ACGTATAT | 0.197 |
| CCCGAAAC | 0.191 |
| AATGCACT | -0.0941 |
| CCATTGTA | 0.0293 |
| TACAAGCA | 0.218 |
| TGCCGACA | 0.0383 |
| AAGAATTA | -0.0546 |
| GAAAGTCA | -0.0646 |
| AAAGCCCA | -0.0697 |
| ATGATAGC | -0.0287 |
| CAAAATTC | 0.306 |
| CTGAAGGC | -0.104 |
| GTCTAGAA | 0.00523 |
| TATTTAGA | 0.141 |
| CATCCCCG | 0.229 |
| ACCCGGAA | 0.163 |
| CGGGCGGA | -0.108 |
| AAAGATAA | -0.024 |
| GGCCTTAC | -0.228 |
| ACCCTATA | -0.118 |
| ATTCCATC | 0.0862 |
| AGGAAACT | -0.0906 |
| CTTATCAC | 0.183 |
| GGATGCGA | 0.155 |

| Sequence | PBM E-score |
| --- | --- |
| CTACAGGA | 0.204 |
| CGGGCTCC | 0.214 |
| AAATGATC | 0.0161 |
| CAGGACCG | -0.117 |
| ACAGGATC | 0.197 |
| CGTGTGTC | 0.0324 |
| ATGCTTCG | -0.189 |
| ACGTTTAG | -0.0644 |
| GCCAATTA | 0.12 |
| CGAAGGGC | -0.363 |
| CCCAATTA | 0.143 |
| GAAGTGAC | -0.208 |
| CCACATGA | -0.0615 |
| GAAACGAA | 0.117 |
| AAAATATG | 0.107 |
| CGGGACTA | -0.0407 |
| CTCACGTC | -0.146 |
| ACTACAAT | 0.0736 |
| GGCGCGCC | 0.243 |
| CTAGCCGC | 0.00282 |
| CCACTTAC | 0.088 |
| AGAGATCC | 0.0351 |
| AAGGCTAT | -0.275 |
| CATGTGGC | -0.0981 |
| CCCGAAAG | 0.224 |

| Sequence | PBM E-score |
| --- | --- |
| AGGCAGAA | -0.219 |
| AGATCACA | -0.0742 |
| ATTGCAAG | -0.0606 |
| CTGTGAAG | 0.0393 |
| CCCTGTGA | -0.229 |
| CGAACAGC | -0.077 |
| CCTGTTAC | -0.0373 |
| CGATCTAC | -0.0727 |
| GTTGCTAA | 0.126 |
| AATCAAAC | -0.06 |
| CCCCCCGG | -0.214 |
| GGTTCATA | -0.164 |
| AGGCATCC | 0.387 |
| ATTTCCCA | -0.0517 |
| ATAACACG | -0.00339 |
| GGAAGTTA | 0.339 |
| CCAAGCGG | -0.108 |
| ACGATCCC | 0.15 |
| GGTACTAA | 0.198 |
| ACAATCGT | -0.127 |
| GTGGCTAA | 0.0558 |
| TTGACAAA | -0.0717 |
| AAAGGGGG | -0.0767 |
| CCAACAGG | 0.0968 |
| CTATATAC | 0.135 |

| Sequence | PBM E-score |
| --- | --- |
| CCCGTTCA | -0.0178 |
| ACCTGATA | 0.0579 |
| CGGAATTA | 0.188 |
| GGCCACCA | 0.0909 |
| CGTCCATA | 0.173 |
| GCGGTATA | -0.124 |
| ACACGAGT | -0.046 |
| AGAGCAAG | -0.2 |
| AATAGATC | -0.0063 |
| CGCGAGGC | -0.129 |
| ACGGGCAC | 0.114 |
| AACCTTAT | 0.0881 |
| AACGGATA | -0.00054 |
| CCAGTCAA | 0.0483 |
| ACTCCGGA | 0.198 |
| TCTAAAGA | 0.0717 |
| CCTTAGCC | -0.0482 |
| ATGCGAAT | 0.162 |
| GAAAATGA | 0.0123 |
| AATAATGA | 0.0865 |
| AGATAGGG | -0.00487 |
| TGGAGGAA | -0.0795 |
| CGATAAGC | -0.188 |
| ACCGGTAC | 0.0158 |
| GAATGCAA | 0.0271 |

| Sequence | PBM E-score |
| --- | --- |
| AGACCAAG | -0.149 |
| AAGAACGG | -0.141 |
| AGAAGGCC | 0.0434 |
| AAGTCATC | -0.169 |
| CTACCGCC | -0.237 |
| AAAAGTCC | 0.00595 |
| AGTCCACT | 0.18 |
| AAGAAGGT | 0.122 |
| CGATTCTA | 0.0385 |
| CTGCCAAA | 0.157 |
| ATAGCCCG | -0.124 |
| GTGTTTAA | -0.0755 |
| ACGATTAG | -0.163 |
| GCAAAAGA | -0.172 |
| AGGGACTG | -0.264 |
| ATACGCGG | 0.115 |
| GGTTAATA | 0.0151 |
| CAGCTGGG | -0.0114 |
| CTGCCGTC | -0.11 |
| GAAATCCA | 0.192 |
| CTTCGCTC | -0.12 |
| ATAGACCG | -0.183 |
| GACTTTTA | -0.0556 |
| CTGTTGCC | 0.112 |
| AAGTGATT | -0.052 |

| Sequence | PBM E-score |
| --- | --- |
| ATTCCTCC | 0.153 |
| CTAACGAA | -0.00472 |
| CTGTTCGA | -0.105 |
| GGGTGAAC | -0.254 |
| AGCACACT | -0.164 |
| ATCCAGTC | 0.145 |
| AAGCGGTC | 0.0279 |
| ACGTTCAG | -0.254 |
| GCGGTACA | -0.197 |
| AACGAGTA | 0.014 |
| CGTGGATA | -0.104 |
| ATCAAACC | 0.0747 |
| GCATAGCC | -0.311 |
| AGACTACC | -0.239 |
| GATGGTAC | -0.0137 |
| ACAACCCC | -0.133 |
| ATCAGATC | -0.0629 |
| CAATTGTA | 0.0437 |
| CGTGCAAC | -0.0564 |
| GTCTTAGA | 0.0315 |
| GCTGCTAA | 0.2 |
| AATACAGG | 0.343 |
| ATAGCCTA | -0.134 |
| AGGCTTAT | -0.258 |
| ATAACGGA | 0.188 |

| Sequence | PBM E-score |
| --- | --- |
| CCATTATC | 0.219 |
| CCAGTCCG | -0.038 |
| GGGTTACC | -0.142 |
| GTTGGCTA | 0.103 |
| ACGCGCCC | 0.352 |
| AACAGATC | -0.169 |
| CATCTGCC | 0.127 |
| GCCCTCAC | -0.183 |
| CTCCGCAC | -0.105 |
| CATTTCAC | -0.0869 |
| TAATCAGA | 0.189 |
| ACGATGGG | -0.041 |
| CTATAACA | -0.0172 |
| AGATTCCC | 0.265 |
| CCCCTCCA | 0.109 |
| ACATGAAT | 0.0191 |
| CGCTCTCC | -0.195 |
| AACTGCTC | -0.208 |
| CCTGGGGC | -0.0718 |

Reference: the supplement of paper PMC3334620
